Data published in PubChem BioAssay AID1671193 (National Center for Advancing Translational Sciences (NCATS), 2021).
About 180 (0.12%) of roughly 150,000 compounds were called active. Inconclusive results, whose numbers are uncertain, are shown with a selection of clear calls. Calls follow the shape of the dose curve; as a rule, active = well fitted cell-killing curve with a large enough effect; inconclusive = small, poorly fitted or top-dose-only effect, or effect the other way; inactive = flat fitted curve, though single readings scatter. Potencies beside an inconclusive call are fits to weak or partial responses and may not hold up. Where a structure was tested more than once in an assay, its records may differ in their call.

Assay: GF-AFC viability counterscreen for inhibitors of alpha-synuclein gene (SNCA) expression; also: nearly all actives have a fitted effect of over 30% in size
Details: HEK-293-SNCA-luc viability, GF-AFC fluorescence, 24 h; series mostly up to 57.1 µM
In short: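 HEK-293-SNCA-luc cells (1500/well) plated 24 h, then exposed 24 h to a dilution series; GF-AFC added 30 min at 37C, fluorescence 405/540 nm; normalised to medium-only and DMSO wells, Hill fit.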
Potency is read from the fitted curve at half-maximal effect; tags tell the direction and shape of the fitted curve.

**Q.** Which Potency does the source give for `COc1ccc(-c2noc(CC3CCN(C(=O)c4ccc(OC)cc4OC)CC3)n2)cc1` here?
**A.** inactive

**Q.** For `CN1CCC(N2C[C@@H]3C[C@H]2C(=O)N(Cc2ccc(OC(F)(F)F)cc2)c2ccccc2O3)CC1`, which Potency is on record?
**A.** inactive

**Q.** With `Cn1cc(CNC(=O)C2CCN(c3nc(-c4ccccc4)nc4c3CCC4)CC2)cn1` as the molecule, how does the Potency read?
**A.** inactive

**Q.** Which Potency does the source give for `Cc1cc(C(=O)N[C@@H]2CCOC[C@H]2OCC(=O)O)sc1-c1ccccc1` here?
**A.** inactive

**Q.** For `Cc1nn2c(c1-c1ccccc1Oc1ccccc1)N(C(=O)Cc1ccc(O)cc1)CCC2`, which Potency is on record?
**A.** inconclusive: 31.6 µM [cytotoxic, single point]

**Q.** Which Potency does the source give for `O=C(Cc1c[nH]c2ccccc12)N1CCCN(c2cc(-c3ccc(Cl)cc3)[nH]n2)CC1` here?
**A.** inconclusive: 39.8 µM [cytotoxic, single point]

**Q.** Which Potency does the source give for `C=C1CC2OC(=O)C(=C)C2C(OC(=O)/C(C)=C\C)CC2(C)OC1=CC2=O` (stereo not drawn) here?
**A.** inconclusive: 18.5 µM [cytotoxic, single point]

**Q.** For `COCCNC(=O)c1ccc2nnc(-c3cccc([S+](C)(=O)[O-])c3)n2c1`, which Potency is on record?
**A.** inactive

**Q.** With `O=C(NCCCNc1nc(Nc2cccc(NC(=O)N3CCCC3)c2)ncc1I)c1cccs1` as the molecule, how does the Potency read?
**A.** inconclusive: 27.1 µM [cytotoxic, partial curve, poor fit]

**Q.** Which Potency does the source give for `COc1ccc(CNc2nc(-c3ccccc3OC)nc3ccccc23)c(OC)c1` here?
**A.** inconclusive: 10 µM [cytotoxic, partial curve, poor fit]

**Q.** Which Potency does the source give for `O=C(c1ccc(Cl)cc1)N1CCC2(CC1)Cc1ccccc1NC2=O` here?
**A.** inconclusive: 35.5 µM [cytotoxic, single point]

**Q.** For `CC[C@@H]1C(=O)N(C)c2cnc(Nc3ccc(C(=O)NC4CCC(N5CCN(CC6CC6)CC5)CC4)cc3OC)nc2N1C(C)C` (stereo partly drawn), which Potency is on record?
**A.** inconclusive: 21.2 µM [cytotoxic, partial curve, poor fit]

**Q.** Which Potency does the source give for `CC(C)c1cc(C(=O)N2CCN(C)[C@@H]3CS(=O)(=O)C[C@@H]32)nc2ncnn12` here?
**A.** inactive

**Q.** Which Potency does the source give for `CC(C)CN1C(=O)CO[C@H](c2ccc(NC(=O)c3ccccc3)cc2)[C@H]1CO` here?
**A.** inactive

**Q.** With `CCc1ccc2c(c1)-c1ccccc1S(=O)(=O)N2CC(=O)N1CCC(C)CC1` as the molecule, how does the Potency read?
**A.** inconclusive: 28.2 µM [cytotoxic, partial curve, poor fit]

**Q.** For `CCC(=O)N1CCN(c2nc3c(s2)CC(C(=O)Nc2ccc(C(C)C)cc2)CC3)CC1` (stereo not drawn), which Potency is on record?
**A.** inactive

**Q.** With `CCn1nccc1C(=O)N1CCC2(CC1)N(C)C(=O)CS2(=O)=O` as the molecule, how does the Potency read?
**A.** inconclusive: 0.708 µM [rising, full curve, poor fit]

**Q.** Which Potency does the source give for `O=C(NCc1cccs1)c1ccc(CSc2nc3cccnc3n2Cc2ccccc2)cc1` here?
**A.** inconclusive: 12.6 µM [cytotoxic, partial curve, poor fit]
